In article PMC4336329 (PLoS ONE, 2015):
Hit rate of the full screen: of about 310,000 compounds, about 14,000 (4.5%) showed an effect of 50% or more. Effects have a minus sign here. Some of the results follow.

biological target: human ether-à-go-go-related gene (hERG) potassium channel (human, UniProt Q12809); assay: primary screen, population patch clamp on CHO cells stably expressing hERG
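Further: peak tail current of the secondary pulse compared with the same well before compound.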

human ether-à-go-go-related gene (hERG) potassium channel, sequence (Q12809 whole entry, looked up): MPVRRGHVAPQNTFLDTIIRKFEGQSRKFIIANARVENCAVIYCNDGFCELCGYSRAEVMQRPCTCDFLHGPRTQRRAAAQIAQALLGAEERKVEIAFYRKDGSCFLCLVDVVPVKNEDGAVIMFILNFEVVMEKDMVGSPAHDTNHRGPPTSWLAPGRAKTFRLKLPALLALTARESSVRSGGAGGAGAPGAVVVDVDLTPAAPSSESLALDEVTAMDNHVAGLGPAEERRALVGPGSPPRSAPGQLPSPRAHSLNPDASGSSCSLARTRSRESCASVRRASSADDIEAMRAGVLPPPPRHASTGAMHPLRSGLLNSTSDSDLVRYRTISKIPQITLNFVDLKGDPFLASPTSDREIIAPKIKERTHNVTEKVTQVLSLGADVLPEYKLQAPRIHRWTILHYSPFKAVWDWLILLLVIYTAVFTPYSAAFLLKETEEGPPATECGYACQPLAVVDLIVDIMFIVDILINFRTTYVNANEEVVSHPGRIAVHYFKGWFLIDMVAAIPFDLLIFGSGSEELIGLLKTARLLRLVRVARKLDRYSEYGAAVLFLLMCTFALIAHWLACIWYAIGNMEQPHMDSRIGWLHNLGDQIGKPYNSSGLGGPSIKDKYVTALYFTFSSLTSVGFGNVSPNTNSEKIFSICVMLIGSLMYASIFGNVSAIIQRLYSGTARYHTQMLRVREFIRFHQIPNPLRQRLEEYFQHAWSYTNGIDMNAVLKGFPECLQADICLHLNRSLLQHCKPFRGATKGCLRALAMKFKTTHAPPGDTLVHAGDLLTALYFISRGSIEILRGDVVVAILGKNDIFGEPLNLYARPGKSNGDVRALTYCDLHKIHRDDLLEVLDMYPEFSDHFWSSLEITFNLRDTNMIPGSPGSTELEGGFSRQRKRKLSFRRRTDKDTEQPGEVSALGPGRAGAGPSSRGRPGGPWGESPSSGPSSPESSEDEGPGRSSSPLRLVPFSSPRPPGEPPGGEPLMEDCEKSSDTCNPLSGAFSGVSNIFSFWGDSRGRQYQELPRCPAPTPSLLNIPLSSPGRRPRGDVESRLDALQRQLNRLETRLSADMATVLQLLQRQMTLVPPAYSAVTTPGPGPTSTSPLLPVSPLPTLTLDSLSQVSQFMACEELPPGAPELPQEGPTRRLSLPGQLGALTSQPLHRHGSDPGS

Row | SMILES | hERG current change (%, negative = inhibition) at 10uM
1 | CCN1CCN(C(=O)C2c3cc(OC)c(OC)cc3C(=O)N(C)C2c2ccc(SC)cc2)CC1 (centres unmarked) | -14.3%
2 | CCC1Oc2ccccc2N(CC(=O)NCCN2CCCC2)C1=O (centres unmarked) | 2.28%
3 | Cc1ccn(CCSCC(=O)O)n1 | 1.03%
4 | CCOC(=O)c1cnn(C)c1NC(=O)c1ccc([N+](=O)[O-])cc1 | -17.2%
5 | CC(=O)N1CCN(CC(=O)Nc2ccc(C)c(F)c2)CC1.Cl | 0.314%
6 | C[C@]12CCC(O)CC1CCC1C2CC[C@]2(C)C(c3cc(C(F)(F)F)n[nH]3)CCC12 (some centres unmarked) | 21.3%
7 | CCN1CCN(c2nc3ccccc3s2)CC1 | -12.5%
8 | COc1ccc2sc(N(CCCN(C)C)C(=O)c3ccc(S(=O)(=O)N(C)Cc4ccccc4)cc3)nc2c1.Cl | -16.4%
9 | CSc1nnc(-c2cccs2)n1-c1ccccc1 | -5.91%
10 | COc1ccc(C)cc1N(CC(=O)O)S(=O)(=O)c1ccc(C)cc1 | 17.1%
11 | Cc1c(C)n(CC(O)CN2CCCCCC2)c2ccccc12 (centres unmarked) | -20%
12 | CC(C)(O)C(=O)N/N=C\c1ccc(OC/C=C/c2ccccc2)cc1 | 20.4%
13 | CC1CCC(NC(=O)c2cccc(S(=O)(=O)NCc3ccccc3)c2)CC1 (centres unmarked) | -49.2%
14 | CCOC(=O)c1c(-c2ccccc2)nc2ccc(Cl)cn12 | 30%
15 | O=C(OCC(=O)N1CCCC1=O)c1nc(Cl)c(Cl)c(Cl)c1Cl | -60.4%
16 | Cc1cccc(-n2ncc3c2CCCC3NC(=O)CN2CCCC2=O)c1C (centres unmarked) | 25%
17 | CCn1c(=O)c([N+](=O)[O-])c(NCc2ccco2)c2ccccc21 | 2.31%
18 | COc1ccc(CNC(=O)c2cc(C3CC3)nc3c2cnn3C(C)C)cc1OC | -2.6%
19 | Cc1nc(NC(=O)C2CCCC2)sc1Cc1ccc2c(c1)OCO2 | -21.6%
20 | Brc1ccc(-c2noc(COc3ccc4ccccc4c3)n2)o1 | -5.19%
21 | Cc1ccccc1N1C(=O)C2ON(c3ccccc3)C(c3cccnc3)C2C1=O (centres unmarked) | -17.2%
22 | Cc1ccccc1NC(=O)C1CCN(c2cnccn2)CC1 | -14.7%
23 | CCc1nnc(NC(=O)CCC(=O)N2CCN(C3c4ccccc4-c4ccccc43)CC2)s1 | 6.46%

Row | SMILES | hERG current change (%, negative = inhibition) at 10uM
24 | Cc1cc(C2=NNC(=NC3CC3)SC2)c(C)n1-c1c(C)n(C)n(-c2ccccc2)c1=O.Cl | -6.65%
25 | O=C(Nc1ccc2nccnc2c1)Nc1ccccc1Cl | 17.8%
26 | O=C(CSc1nnnn1-c1ccc(Cl)cc1)N1CCc2ccccc2C1 | -39.3%
27 | C[n+]1cccc(C(=O)Nc2ccccc2)c1.[Cl-] | 21%
28 | O=C(NCc1cccs1)C1CC(=O)N(c2ccc(Cl)cc2)C1 (centres unmarked) | -40.7%
29 | O=C(Nc1ccc(S(=O)(=O)Nc2ncccn2)cc1)c1ccco1 | 6.2%
30 | COc1ccc(NC(=O)c2ccccc2Cl)cc1NC(=O)CN1CCOCC1 | -5.99%
31 | O=C(COc1ccc(Cl)cc1)N1CCN(c2ccc([N+](=O)[O-])c(N3CCCCC3)c2)CC1 | 2.92%
32 | Cc1ccc(C(=O)Nc2ccc(Nc3ccccc3)cc2)cc1Br | -7.02%
33 | COc1ccc(C)cc1NC(=O)Nc1cccc(C)c1 | 9.39%
34 | COC(=O)CC(c1ccc(C#N)cc1)n1c(C)ccc1C (centres unmarked) | 2.31%
35 | Cc1ccc(-c2c(C#N)c(N)nc3c2CCCCCC3)o1 | 3.26%
36 | O=C(NCCc1ccc(C(F)(F)F)cc1)C1COc2ccccc2O1 (centres unmarked) | 6.12%
37 | CCOC(=O)c1cccc(NC(=O)CSc2nnc(CNc3ccc(C)cc3)n2CC)c1 | -20.6%
38 | COCCn1c(SCC(=O)NC2CCCCC2C)nnc1-c1ccncc1 (centres unmarked) | 3.08%
39 | O=C(Cn1[nH]c(=O)c2ccccc2c1=O)NC1CCN(Cc2ccccc2)CC1 | 0.791%
40 | C#CCNC(=O)C1=C[C@@H](c2ccc(C(F)(F)F)cc2)[C@H](CCCO)[C@@H](OCC)O1 | -37.7%
41 | O=C1CC(/C=C/c2ccncc2)=Nc2ccccc2N1 | 12%
42 | Cc1ccc(C(=O)NC(=S)Nc2ccc(S(=O)(=O)N3CCN(C)CC3)cc2)cc1 | 0.896%
43 | Cc1n[nH]c(C)c1S(=O)(=O)N1CCc2ccccc2C1 | 0.673%
44 | OCc1ccccc1O[C@@H]1O[C@H](CO)[C@@H](O)[C@H](O)[C@H]1O | 5.5%
45 | COc1ccc(NC(=O)C2CC(=O)N(CCc3ccc(Cl)cc3)C2)cc1 (centres unmarked) | -24%
46 | CCn1cc(C(C)NC(=O)Nc2ccccc2C(=O)OC)c(C)n1 (centres unmarked) | 6.95%

Row | SMILES | hERG current change (%, negative = inhibition) at 10uM
47 | CCN(CC)S(=O)(=O)c1ccc(F)c(C(=O)NCCCN2CCOCC2)c1 | -11.7%
48 | Cc1cc(C(=O)OCC(=O)Nc2cccc(F)c2)c(C)n1C1CC1 | -2.59%
49 | O=C(CNC(=O)c1ccccc1)OC(C(=O)Nc1cc(C(F)(F)F)ccc1Cl)c1ccccc1 (centres unmarked) | 10.1%
50 | CC(=O)SCCC(=O)Nc1ccccc1 | 23.4%
51 | CC1(C)CC(CCC(=O)Nc2ccccc2Cl)C(=O)O1 (centres unmarked) | -3.46%
52 | COC(=O)Cn1c2ccc(C)cc2c2nc(C)sc21 | -7.39%
53 | Cc1ccc(C)c(S(=O)(=O)NC(CC(C)C)C(=O)O)c1 (centres unmarked) | 5.89%
54 | CCCCN1C(=O)C2NN=C(C(=O)OCC)C2C1=O (centres unmarked) | 7.51%
55 | CC(=O)OCC1=C(C(=O)O)N2C(=O)C(NC(=O)c3ccc(COc4c(C)cccc4Cl)o3)C2SC1 (centres unmarked) | -2.23%
56 | Cc1ccc(C)c(NC(=O)CN(C)C(=O)CSC(C)C(=O)Nc2cc(C)on2)c1 (centres unmarked) | 16.9%
57 | Cc1ccc(CNC(=O)C2CCCN2C(=O)Nc2cccc(Cl)c2)cc1 (centres unmarked) | 6.49%
58 | Cc1occc1C(=O)NNC(=S)NCC(C)C | 4.47%
59 | COc1ccc(-c2[nH]ncc2/C=N/NC(=O)c2ccncc2)c(OC)c1 | 13.8%
60 | O=C(CSc1nc2c(c(=O)n1-c1ccc(F)cc1)SCC2)N1CCCC1 | 10.1%
61 | COc1cccc(N2CN(CCc3ccccc3)CNC2=S)c1 | 9.83%
62 | O=C(O)c1ccc2nc(C(F)(F)F)[nH]c2c1 | -1.42%
63 | COc1ccccc1/C=N/NC(=O)CSc1cc(C)nc2ccccc12 | -5.68%
64 | CCOc1ccccc1N(CC(=O)Nc1c(C)n(C)n(-c2ccccc2)c1=O)S(=O)(=O)c1ccccc1 | -10.9%
65 | COc1ccc2c(c1)c(/C=C/c1cc[n+](C)cc1)cn2C.[I-] | 12.9%
66 | CCOCCCNC(=O)c1c[nH]c2ccc(OCC)cc2c1=O | -2.11%
67 | CC1=C(C(=O)O)N2C(=O)C(NC(=O)c3nn(C)cc3[N+](=O)[O-])C2SC1 (centres unmarked) | 17.5%
68 | N=c1c2c3c(sc2ncn1CCN1CCOCC1)CCCC3 | -16.9%
69 | CN1CCN(c2ccc(S(=O)(=O)N3CCCCC3)cc2NC(=O)COc2ccc([N+](=O)[O-])cc2)CC1 | -34.3%

Row | SMILES | hERG current change (%, negative = inhibition) at 10uM
70 | O=S(=O)(NC1CCCCC1NS(=O)(=O)c1ccc(F)cc1)c1ccc(F)cc1 (centres unmarked) | -5.29%
71 | COc1ccc(C(=O)Nc2ccc(NC(=O)c3cccs3)c(OC)c2)cc1Cl | -20.1%
72 | Cc1ccc(/C=C(\C#N)C(=O)Nc2ccccn2)o1 | 7.01%
73 | CCN(c1ccc(OC)cc1)S(=O)(=O)c1cc(-c2cc(C)no2)ccc1OC | -15.5%
74 | Cc1ccc2c(C)c(C(=O)N(Cc3ccc(F)cc3)C3CCS(=O)(=O)C3)oc2c1 (centres unmarked) | -2.08%
75 | Cn1c(SCC(=O)N=Nc2c(O)[nH]c3ccccc23)nc2ccccc21 | 6.24%
76 | COc1ccccc1CNC(=O)C1CCCN(S(C)(=O)=O)C1 (centres unmarked) | 9.4%
77 | O=C(O)c1ccc2c(=O)[nH]c(CN3CCOCC3)nc2c1 | 19.8%
78 | O=C(Cc1cccs1)Nc1nnc(-c2ccccc2)s1 | 11.4%
79 | O=C(O)CCn1ccnc1-c1ccccc1 | 6.21%
80 | COc1ccc(/C=N/N(c2ccccc2)c2ccccc2)cc1O | 7.16%
81 | Cc1c(Cl)cccc1NC(=S)N=Nc1c(O)n(CN2CCOCC2)c2ccccc12 | 5.83%
82 | COc1ccc(S(=O)(=O)NC(CC(C)C)C(=O)NC(C)c2cccs2)cc1 (centres unmarked) | -7.74%
83 | C=C(c1ccccc1C)[n+]1ccccc1 | 26.3%
84 | COc1ccccc1N(CC(=O)N/N=C(\C)c1cccc(Br)c1)S(C)(=O)=O | -1.22%
85 | NNc1cc([N+](=O)[O-])cc2c1C(=O)N(Cc1ccccc1)S2=O (centres unmarked) | 20.3%
86 | Cn1nc(C(C)(C)C)c([N+](=O)[O-])c1C(=O)Nc1cccc2ccccc12 | -3.22%
87 | COc1ccc(OC)c(NC(=O)Nc2nnc(N3CCCCC3C)s2)c1 (centres unmarked) | 7.74%
88 | O=C(C1CCN(Cc2ccccc2)CC1)N1CCCC1 | 8.93%
89 | CCOC(=O)C1=C(COC(=O)CCNS(=O)(=O)c2ccc(NC(C)=O)cc2)NC(=O)NC1C (centres unmarked) | 16.7%
